Test results taken from PubChem BioAssay AID1963576 (National Center for Advancing Translational Sciences (NCATS), 2024).
Among all 46,000 compounds or so, about 60 (0.1%) were called active. About 3% were inconclusive and are not listed. Calls follow the shape of the dose curve; as a rule, active = well fitted inhibition curve with a large enough effect; inconclusive = small, poorly fitted or top-dose-only effect; inactive = no such curve, though single readings can be large or run the other way. This is one part of the list.

Experiment: Primary qHTS assay for Inhibitors of ovarian cancer metastasis using an organotypic tumor microenvironment (TME) model. Also: nearly all actives have a fitted effect of over 65% in size.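 As to activity change, negative = inhibition: plate controls were DMSO wells for no effect and tomatine positive control wells for full effect.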
Details: SKOV3ip1-GFP adhesion/invasion on 3D omental model, fluorescence; series mostly up to 45.8 µM; activity change, negative = inhibition: at the top concentration
Method in brief: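 Primary human omental fibroblast/mesothelial 3D culture pre-formed 48 h. SKOV3ip1-GFP cells added with compounds (0.36-46 umol/L), incubated 2 h RT/16 h 37 C, fixed; GFP cells quantified at 488/509 nm.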

Activity change, negative = inhibition, inactive:
CCCOc1ccccc1C(=O)N1CCCCC1CCN1CCCCC1 (centres undefined) 3.09%, COc1ccc(C(=O)Nc2cc(-c3nc4ncccc4o3)ccc2C)cc1Br -1.18%, COc1ccc(OC)c(-n2nnc(-c3nc(-c4ccc5c(c4)OCO5)no3)c2C)c1 -6.98%, O=C(NC1CC(=O)N(c2cccc(F)c2)C1)c1ccc(S(=O)(=O)N2CCCCC2)cc1 (centres undefined) -2.93%, COc1ccc(OCc2nc(-c3ccc(OC)c(OC)c3)no2)cc1 -13.1%, CC(=O)Nc1ccc(NC(=O)c2ccc3c(c2)CCN3S(=O)(=O)c2ccc(Cl)cc2)cc1 -6.37%, CCc1ccc(NS(=O)(=O)c2cc(Br)cc3c2N(C(C)=O)CC3)cc1 -10.7%, COc1ccc(CCNc2oc(/C=C/c3ccc(OC)c(OC)c3)nc2C#N)cc1 -27.3%, CCCc1nc2nc(C)c(NS(=O)(=O)c3ccc(C)c(C)c3)c(=O)n2[nH]1 -9.19%, COc1cccc(NC(=O)CSc2nnc3[nH]c(=O)cc(-c4ccccc4)n23)c1 1.63%, CCOC(=O)C1CCCN(C(=O)c2ccc(C)c(NC(=O)c3nsc4ccccc34)c2)C1 (centres undefined) 3.02%, CC(=O)Nc1c(C)nn(-c2ccccc2)c1N1CCC(C(=O)Nc2ccc(C)cc2Cl)CC1 3.29%, COc1cccc(-n2ccnc2SCC(=O)Nc2nc3ccc(C)cc3s2)c1 -2.27%, Cc1ccc(Cn2c(C(=O)O)c(CNCCc3cccs3)c3ccc(C)cc32)cc1 -7.81%, O=C(NC1CC(=O)N(c2ccc(F)cc2)C1)c1ccc(S(=O)(=O)N2CCCC2)cc1 (centres undefined) 9.47%, CCCCOc1ccc(C(=O)NCCS(=O)(=O)N2CCN(c3ccccc3OC)CC2)cc1 -11.1%, CC(C)NCC(O)COc1ccc(CCOCC2CC2)cc1 (centres undefined) 28.1%, COc1ccccc1NC(=O)c1ccc2[nH]c(C)cc(=O)c2c1 0.902%, CCN(CC)S(=O)(=O)c1ccc2nc(NC(=O)c3ccccc3OC)sc2c1 4.2%, COc1cccc(CNC(=O)CSc2nc3ccccc3nc2Cc2ccccc2)c1 -20.2%, Cc1ccccc1NC(=O)c1c(C)oc2ccc(O)c(CN3CCCC(C)C3)c12 (centres undefined) -2.46%, O=c1c2sc3ccccc3c2n(Cc2ccccc2F)c(=O)n1-c1ccccc1Cl -1.54%, Cc1ccc2c(c1)cc(C(=O)NCc1ccc(F)cc1)n2C 0.697%, Cc1cccc2cc(CN(C(=O)c3cccc(Cl)c3)c3ccccc3)c(=O)[nH]c12 -4.36%, CCN(C(=O)CSc1nc(-c2ccccc2)no1)c1cccc(C)c1 -22.5%, CNC(=O)C1CCC(Cn2c(=O)c3sccc3n(CC(=O)N3CCCC3)c2=O)CC1 (centres undefined) 3.81%, COc1cccc(CNc2ncnc3c2nnn3C)c1 -8.24%, COc1ccccc1Nc1nn2c(=O)c3ccc(C(=O)NC4CCC(C)CC4)cc3nc2s1 (centres undefined) -1.31%, O=C(C1CCN(S(=O)(=O)c2ccc(Br)s2)CC1)N1CCN(c2ccc(F)cc2)CC1 1.92%, CCOc1ccc(C2C(C(N)=O)=C(C)Nc3nc(-c4ccc(OC)cc4)nn32)cc1 (centres undefined) 2.62%, CCc1nc(N)nc(N)c1-c1ccc(Cl)cc1 -18.7%, O=C(OCc1cc(=O)n2nc(C3CC3)sc2n1)c1ccc(NC(=O)c2ccccc2Cl)cc1 -2.69%, COc1ccc(C(=O)Nc2ccccc2)cc1S(=O)(=O)Nc1ccc(Br)cc1 -12%, CC(C)c1ccc(S(=O)(=O)c2nnn3c2nc(NCc2cccs2)c2sccc23)cc1 6.18%, O=C(NCC(c1ccc2c(c1)OCO2)N1CCN(c2ccccc2)CC1)C(=O)Nc1ccccc1 (centres undefined) -0.367%, O=C(Nc1cccc(C(=O)N2CCN(c3ccccc3)CC2)c1)c1nsc2ccccc12 8.34%, O=C(Nc1ccc2nc(SCC(=O)N3CCCc4ccccc43)sc2c1)c1ccccc1F 0.442%, Cc1ccc(NC(=O)CCn2nc(-c3ccccc3)c3ccccc3c2=O)c(C)c1 -9.95%, Fc1ccc(Nc2nc(-c3cccc(Cl)c3)c3c(n2)-c2ccccc2OC3)cc1 -17.9%, CCc1ccc2oc(C(=O)Nc3cc(Cl)ccc3OC)cc(=O)c2c1 12.3%, COc1ccc(-c2cc(C(F)(F)F)c(C#N)c(SCC(=O)Nc3ccccc3F)n2)cc1 -17.9%, COc1ccc2c(c1)c1c(c(=O)n(-c3ccccc3C)c(=O)n1CC(=O)N1CCCC1)n2C 4.13%, COc1ccc(C2C=C(c3ccccc3)Nc3nc(NC(=O)/C=C/c4ccc(F)cc4)nn32)cc1 (centres undefined) 3.32%, CCOc1ccc(CNC(=O)C2CCN(S(=O)(=O)c3cn(C)cn3)CC2)cc1OC -2.1%, COc1cccc(CN2C(=O)CN(C3CCCCC3)C(=O)C2c2ccc(OC)c(OC)c2)c1 (centres undefined) 2.41%, COc1ccc(CNC(=O)c2cnn(-c3ccc(C)cc3)c2-n2cccc2)cc1OC 0.793%, COc1ccccc1C(=O)Nc1ccc(OCc2cc(=O)n3ccc(C)cc3n2)cc1 -6.29%, COc1cccc(CNc2nccn(-c3ccc(OC)c(OC)c3)c2=O)c1 26.3%, COc1ccc(-n2c(/C=C/c3c(C)[nH]c4ccccc34)nc3ccccc3c2=O)cc1 -18.7%, CCn1c(=N)c(C(=O)NC2CCCC2)cc2c(=O)n3ccccc3nc21 -8.83%, O=C(OCc1cccc(C(F)(F)F)c1)c1ccc(-c2nnn(Cc3ccc(F)cc3)n2)cc1 -17%, COCc1cc(C)nc2sc3c(c12)NC(c1ccc(O)cc1)N(c1ccc(C)cc1)C3=O (centres undefined) -8.73%, O=C(Cn1c2ncccc2c(=O)n1-c1ccccc1)Nc1ccc(Cl)cc1C(F)(F)F -2.73%, COc1ccc(C)cc1-n1c(-c2ccc(C)cc2)cc2c1CC(C)(C)CC2=O -2.4%, COc1ccccc1NC(=O)c1sc2ncn(Cc3ccccc3Cl)c(=O)c2c1C 8.16%, CCOC(=O)C1CCCN(S(=O)(=O)c2ccc3[nH]c(=O)oc3c2)C1 (centres undefined) 6.51%, COc1ccc2c(c1)C=C(C(=O)NCc1cc(Br)ccc1OC)CO2 1.6%, CCCCCn1cc2c(c1-c1ccc(Cl)cc1)c(=O)n(C)c(=O)n2C -9.25%, Cc1cccc(C(=O)Nc2ccc3oc(-c4ccncc4)nc3c2)c1 -9.5%, CCOc1ccc(C(=O)OCc2cc(=O)n3cc(C)sc3n2)cc1 0.585%, COc1ccc(-c2nc3scc(CCNC(=O)c4cc(OC)cc(OC)c4)n3n2)cc1 11%, CC(C)N1CCc2nc(SCC(=O)Nc3cccc(F)c3)[nH]c(=O)c2C1 5.13%, COC(=O)Nc1nc2ccc(Sc3ccccc3)cc2[nH]1 -12.4%, Cc1ccc2[nH]c3c(=O)n(CC(=O)NC(C)C)ncc3c2c1 -4.46%, COc1ccc(-c2[nH]c3ccccc3c2SCCNC(=O)c2ccc(S(=O)(=O)N(C)C)cc2)cc1 1.79%, COc1ccc(S(=O)(=O)NCC(c2ccc(N(C)C)cc2)N2CCOCC2)cc1 (centres undefined) 32.4%, CCOc1ccc(CNC(=O)c2sc3ncnc(N(C)C4CCCCC4)c3c2C)cc1 4.28%, NC(=O)c1ccccc1NC(=O)Cn1nc(Cc2cccnc2)c2ccccc2c1=O -3.01%, CCNc1oc(-c2ccc(COc3ccc(Cl)cc3)o2)nc1C#N 16.4%, CCCCOc1ccc(CNC(=O)Cc2ccc(NC(=O)N3CCSc4ncccc43)cc2)cc1 -5.86%, COC(=O)c1cc2oc(C)cc2n1CC(=O)Nc1cc(Cl)ccc1OC -0.98%, COc1ccc(S(=O)(=O)N2CCN(CC(=O)Nc3ccc(Cl)c(C(F)(F)F)c3)CC2)cc1 4.1%

outcome, inactive:
Cc1noc(-c2ccc(N(C)Cc3ccccc3)c([N+](=O)[O-])c2)n1, Cc1ccc(OCC(=O)Nc2nnc(SCc3cc(=O)n4cc(C)ccc4n3)s2)cc1, COC(=O)c1ccccc1NC(=O)CCn1c(=O)c2cccn2c2cccnc21, Cc1ccc(NC(=O)Nc2nc3c(s2)CCCCCC3)cc1C, O=C(COc1ccc(Cl)cc1)Nc1ccc(O)c(-c2nc3ccccc3s2)c1, CCN(C(=O)CSc1nc2ccccc2nc1Cc1cccc(OC)c1)c1cccc(C)c1, Cc1ccc2oc(-c3cc(NC(=O)Cc4ccccc4)ccc3Cl)nc2c1, CN(C)c1ccc(C(CNC(=O)c2ccccc2Cl)N2CCc3ccccc32)cc1 (centres undefined), Cc1cc(Br)ccc1NC(=O)COc1cc(=O)n(C)c2ccccc12, COc1cc2c(cc1OC)C(c1ccc(F)cc1)N(c1ccccc1)C(=O)C2 (centres undefined), CCOCC(=O)Nc1ccc(-c2cn3c(C)csc3n2)cc1, COc1ccccc1N1CCN(c2ccc(=O)n(CC(=O)O)n2)CC1, COc1cccc(C2CC(=O)Nc3c2c(=O)[nH]c2ncnn32)c1OC (centres undefined), COc1ccccc1C(=O)Nc1cccc(OCc2cc(=O)n3c4c(sc3n2)CCCC4)c1, O=c1c2sc3ccccc3c2n(Cc2ccc(F)cc2)c(=O)n1Cc1ccco1, Cc1cc2ccccc2n1CCNC(=O)c1ccccc1F, CCc1ccc(C2=C(C)C(N3CCC(C(=O)Nc4ccc(F)cc4)CC3)=NS2(=O)=O)cc1, Cc1c(C(=O)Nc2ccccc2)sc2nc(-c3cc4ccccc4oc3=O)[nH]c(=O)c12, CCC(C)Sc1c(C(C)C)cnc2c1c(=O)n(C)c(=O)n2C (centres undefined), CCOc1ccc(S(=O)(=O)N2CCC(N3CCN(Cc4ccc(C)cc4)C(=O)C3=O)CC2)cc1, Cc1nn(C)c2c1c(-c1ccccc1)cc(=O)n2Cc1ccc(Cl)cc1, CCN(C(=O)c1cn(-c2ccc(OC)cc2)c(=O)c2ccccc12)c1cccc(Cl)c1, Cc1nn(C(=O)c2ccccc2)c(C)c1S(=O)(=O)N1CCCCCC1, COc1ccc(CNC(=O)CSc2ncc(S(=O)(=O)c3ccc(Br)cc3)c(=O)[nH]2)cc1, COC(=O)c1cccc(Nc2nn3c(=O)c4cc5c(cc4nc3s2)OCO5)c1, Cc1nn(-c2ccc(N3CCOCC3)nn2)c(C)c1CCC(=O)NCc1ccccc1F, O=C(CSC1=Nc2ccccc2N=C(c2ccc(F)cc2)C1)NCc1ccccc1Cl
